Reference: a collection of fitness landscapes (doi:10.1126/science.1257360)
Some of the results follow.

B1: PhoQ; a variant is named by its letters at X, in order, P23837 (parent)
chain: MKKLLRLFFPLSLRVRFLLATAAVVLVLSLAYGMVALIGYSVSFDKTTFRLLRGESNLFYTLAKWENNKLHVELPENIDKQSPTMTLIYDENGQLLWAQRDVPWLMKMIQPDWLKSNGFHEIEADVNDTSLLLSGDHSIQQQLQEVREDDDDAEMTHSVAVNVYPATSRMPKLTIVVVDTIPVELKSSYMVWSWFIYVLSANLLLVIPLLWVAAWWSLRPIEALAKEVRELEEHNRELLNPATTRELTSLVRNLNRLLKSERERYDKYRTTLTDLTHSLKTPLXXLQXXLRSLRSEKMSVSDAEPVMLEQISRISQQIGYYLHRASMRGGTLLSRELHPVAPLLDNLTSALNKVYQRKGVNISLDISPEISFVGEQNDFVEVMGNVLDNACKYCLEFVEISARQTDEHLYIVVEDDGPGIPLSKREVIFDRGQRVDTLRPGQGVGLAVAREITEQYEGKIVAGESMLGGARMEVIFGRQHSAPKDE

Variants of: B1
Experiment: enrichment ratio after two sorts for PhoP signalling (ratio (wild type AVST 3.29)); higher = more functional
Details: with PhoP (E. coli)

| Variant | enrichment ratio |
| --- | --- |
| KIPC | ≤ 0.25 |
| VGDT | ≤ 0.25 |
| KQFC | ≤ 0.25 |
| RDAD | ≤ 0.25 |
| TWRW | ≤ 0.25 |
| HHSS | ≤ 0.25 |
| KLGV | ≤ 0.25 |
| RFID | ≤ 0.25 |
| VYCD | ≤ 0.25 |
| NGKV | ≤ 0.25 |
| YWHT | ≤ 0.25 |
| YVVM | ≤ 0.25 |
| YKTT | ≤ 0.25 |
| EASL | ≤ 0.25 |
| GWWC | ≤ 0.25 |
| LDNQ | ≤ 0.25 |
| WAQR | ≤ 0.25 |
| KMFQ | ≤ 0.25 |
| PAAC | ≤ 0.25 |
| YGRA | ≤ 0.25 |
| VYDH | ≤ 0.25 |
| YDFQ | ≤ 0.25 |
| EANL | ≤ 0.25 |
| MPGL | ≤ 0.25 |
| TVIE | ≤ 0.25 |
| RMYA | ≤ 0.25 |

| Variant | enrichment ratio |
| --- | --- |
| LCGK | ≤ 0.25 |
| HCIM | ≤ 0.25 |
| QYTM | ≤ 0.25 |
| KGAM | ≤ 0.25 |
| NTIK | ≤ 0.25 |
| MTWH | 3.91 |
| NCSP | ≤ 0.25 |
| IMLY | ≤ 0.25 |
| GHAR | ≤ 0.25 |
| SICP | 0.378 |
| HMTW | 5.85 |
| YNLT | ≤ 0.25 |
| WLCW | ≤ 0.25 |
| YNCS | ≤ 0.25 |
| HFER | ≤ 0.25 |
| LDVG | ≤ 0.25 |
| EDRT | ≤ 0.25 |
| MFCM | ≤ 0.25 |
| LNAS | ≤ 0.25 |
| TFGE | ≤ 0.25 |
| PVPI | ≤ 0.25 |
| WTMH | ≤ 0.25 |
| NSMY | ≤ 0.25 |
| NYEW | ≤ 0.25 |
| FNCF | 0.767 |
| AYKN | 6.25 |

| Variant | enrichment ratio |
| --- | --- |
| ACGW | 4.09 |
| VIWW | ≤ 0.25 |
| WCYT | ≤ 0.25 |
| FVHM | ≤ 0.25 |
| INME | ≤ 0.25 |
| ASRE | ≤ 0.25 |
| VLAV | ≤ 0.25 |
| DIWI | ≤ 0.25 |
| MVPD | ≤ 0.25 |
| VGKS | ≤ 0.25 |
| YKCR | ≤ 0.25 |
| YAAV | ≤ 0.25 |
| MVLC | 4.03 |
| HRPD | ≤ 0.25 |
| GQNH | ≤ 0.25 |
| HNVL | ≤ 0.25 |
| PCDW | ≤ 0.25 |
| YMLR | ≤ 0.25 |
| PWTA | ≤ 0.25 |
| PWST | ≤ 0.25 |
| VTHC | ≤ 0.25 |
| KCPT | ≤ 0.25 |
| FSEA | ≤ 0.25 |
| SSVH | 14.4 |
| SMIV | ≤ 0.25 |
| KRVE | ≤ 0.25 |

| Variant | enrichment ratio |
| --- | --- |
| QRGC | ≤ 0.25 |
| IKRN | ≤ 0.25 |
| MNNS | ≤ 0.25 |
| PCME | ≤ 0.25 |
| IENE | ≤ 0.25 |
| GNFT | ≤ 0.25 |
| IWCW | ≤ 0.25 |
| NPNK | ≤ 0.25 |
| RAME | ≤ 0.25 |
| RCVR | ≤ 0.25 |
| CLYI | ≤ 0.25 |
| MYYY | ≤ 0.25 |
| DIDA | ≤ 0.25 |
| PTYM | ≤ 0.25 |
| DCNN | ≤ 0.25 |
| FIQE | ≤ 0.25 |
| WWTS | ≤ 0.25 |
| VSML | 15.7 |
| AACE | 6.4 |
| VPHT | ≤ 0.25 |
| KGDC | ≤ 0.25 |
| KYSV | ≤ 0.25 |
| IMDL | ≤ 0.25 |
| FQIA | ≤ 0.25 |
| EMKD | ≤ 0.25 |
| AQIH | ≤ 0.25 |

| Variant | enrichment ratio |
| --- | --- |
| SSED | ≤ 0.25 |
| ENLP | ≤ 0.25 |
| FCMR | ≤ 0.25 |
| KIAQ | ≤ 0.25 |
| CSAL | ≤ 0.25 |
| VQAY | ≤ 0.25 |
| MDCE | ≤ 0.25 |
| GIVE | ≤ 0.25 |
| SRCN | ≤ 0.25 |
| LGSS | ≤ 0.25 |
| FKIL | ≤ 0.25 |
| ADYQ | ≤ 0.25 |
| RKGV | ≤ 0.25 |
| AEAL | 18.2 |
| EGWH | ≤ 0.25 |
| PIAD | ≤ 0.25 |
| TQRA | ≤ 0.25 |
| SSTN | 7.6 |
| QSSF | 0.995 |
| SLFI | ≤ 0.25 |
| WLKS | ≤ 0.25 |
| KHHN | ≤ 0.25 |
| LNHK | ≤ 0.25 |
| YVGP | ≤ 0.25 |
| RDLL | ≤ 0.25 |
| VLVP | ≤ 0.25 |

| Variant | enrichment ratio |
| --- | --- |
| IQEK | ≤ 0.25 |
| NIVE | ≤ 0.25 |
| SPFD | ≤ 0.25 |
| GCCK | ≤ 0.25 |
| WRHY | ≤ 0.25 |
| QVDV | ≤ 0.25 |
| VWQC | ≤ 0.25 |
| AMLT | ≤ 0.25 |
| WMGV | ≤ 0.25 |
| QAAV | ≤ 0.25 |
| EASF | ≤ 0.25 |
| HELG | 12.3 |
| RSPW | ≤ 0.25 |
| SIWC | ≤ 0.25 |
| VFDK | ≤ 0.25 |
| TNYG | 10.7 |
| ANFQ | ≤ 0.25 |
| LVML | 0.532 |
| ESVH | ≤ 0.25 |
| MSVR | 0.327 |
| EMRW | ≤ 0.25 |
| VSLG | 4.33 |
| YHIK | 1.44 |
